Each structure is given as a SMILES string. Over roughly 1,000 compounds, “relative growth in counter assay (no AraC = 100%, AraC + DMSO = 0%)” has its median near -1.1; the highest 2% begin near 20. Some of the results follow.

The source of these data is the supplement of paper PMC12340641.

The assay concerns HEK293FT dCK*-only. Briefly: relative growth in counter assay (no AraC = 100%, AraC + DMSO = 0%); higher = more growth rescue independent of IKZF1. As to conditions: compound concentration: 5 uM; AraC concentration: 0.3 uM; overnight pretreatment + 4 days AraC. How it is done:
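Growth recovery screen of the molecular-glue-like (Specs) library. HEK293FT cells expressing a dCK*-IKZF1 fusion (primary) or dCK* alone (counter) were pretreated overnight with compound at 5 uM, then given 0.3 uM AraC for 4 days. Hoechst nuclei were counted by imaging. Primary: normalised to pomalidomide (100%) and DMSO (0%), mean of 2 replicates. Counter: normalised to no-AraC (100%) and AraC+DMSO (0%), single replicate.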
As for `CC(C)(C)CC(=O)NC1(C(=O)N2CCC(c3cccc(Nc4ncc(Cl)s4)n3)CC2)CCCCC1`, the “relative growth in counter assay” value is -22.6%. Consider `Cc1cc(C)nc(NS(=O)(=O)c2ccc(Nc3nc(-c4ccccc4)cs3)cc2)n1`, for which the “relative growth in counter assay” value is 2.2%. In the case of `CC(C)c1cnc(Nc2cccc(C3CCN(C(=O)C4CCCCC4)CC3)n2)s1` it was 11%. In the case of `Cc1csc(Nc2cccc(C3CCCN3C(=O)Cc3c[nH]c4ccccc34)n2)n1` (stereo unspecified) it was 3.37%. For `Cc1cccc(OC(C)(C)C(=O)N2CCOC(c3cccc(Nc4ncc(C)s4)n3)C2)c1` (stereo unspecified), the “relative growth in counter assay” value was -4.9%. For `COc1cc(NS(=O)(=O)c2ccc(NC(=O)COc3cccc(C)c3)cc2)nc(OC)n1`, the “relative growth in counter assay” value was -22.6%. In the case of `Cc1nonc1CC(=O)N1CCC(c2cccc(Nc3nc(C)c(C)s3)n2)CC1` it was 9.17%; in that of `CCOc1ccccc1OCC(=O)Nc1ccc(S(=O)(=O)Nc2ccccn2)cc1`, -1.47%; in that of `Cn1nccc1/C=C/C(=O)N1CCCC(c2cc3ccccc3c(Nc3nccs3)n2)C1` (stereo unspecified), -13.3%.

Turning to `COc1c(C)cccc1C(=O)N1CCCC1c1cccc(Nc2nc(C)cs2)n1` (stereo unspecified), the “relative growth in counter assay” value was determined as 4.8%. With `Cc1ccc(/C=C/C(=O)Nc2ccc(S(=O)(=O)Nc3cc(C)nc(C)n3)cc2)cc1` the figure was -5.33%; with `O=C(CSc1nnc2c(n1)[nH]c1ccccc12)Nc1cc(Cl)cc(Cl)c1`, -18.9%. Regarding `COc1cc(NS(=O)(=O)c2ccc(NC(=O)C(C)(C)C)cc2)nc(OC)n1`, the “relative growth in counter assay” value is 3.09%.

In the case of `O=S(=O)(Nc1ccc(S(=O)(=O)Nc2ncccn2)cc1)c1ccc(Cl)cc1`, the “relative growth in counter assay” value is 10.6%. In the case of `Cc1ccc(CC(=O)N2CCOC(c3cccc(Nc4nccs4)n3)C2)cc1C` (stereo unspecified) it was -4.97%; in that of `O=C(O)CCOCCOCCOCCOCCNc1cc2c(cc1F)C(=O)N(C1CCC(=O)NC1=O)C2=O` (stereo unspecified), 4.1%.

`Cc1cc(C)nc(NS(=O)(=O)c2ccc(NC(=O)CSc3nc4ccccc4[nH]3)cc2)n1`: the “relative growth in counter assay” value was -1.02%.

Consider `CC(C)(C)C(=O)NC1(C(=O)N2CCC(c3cccc(Nc4ncc(Cl)s4)n3)CC2)CCCCC1`, for which the “relative growth in counter assay” value is -21.4%. For `CCCc1cnc(Nc2cccc(C3CCN(C(=O)C4CCCCN4C(=O)COC)CC3)n2)s1` (stereo unspecified), the “relative growth in counter assay” value is -1.04%.

Turning to `CCC(=O)N1CCCC1c1csc(Nc2ccccn2)n1` (stereo unspecified), the “relative growth in counter assay” value was -10.9%. In the case of `COc1ccc(/C=C/C(=O)Nc2ccc(S(=O)(=O)Nc3cc(C)nc(C)n3)cc2)cc1OC` it was 1.15%; in that of `Cc1cnc(Nc2cccc(C3CCN(C(=O)C45CC6CC(CC(C6)C4)C5)CC3)n2)s1`, 10.9%; in that of `O=C(O)CCCCCNc1cccc2c1C(=O)N(C1CCC(=O)NC1=O)C2=O` (stereo unspecified), 1.33%. For `Cc1cc(C)nc(NS(=O)(=O)c2ccc(NC(=O)c3ncoc3-c3cccs3)cc2)n1`, the “relative growth in counter assay” value was -0.87%. Take `Cc1onc(-c2ccccc2)c1C(=O)Nc1ccc(S(=O)(=O)Nc2ncccn2)cc1`: the “relative growth in counter assay” value is -21.6%. Take `CN(CC(=O)N1CCOC(c2cccc(Nc3nccs3)n2)C1)Cc1ccccc1F` (stereo unspecified): the “relative growth in counter assay” value was found to be 0.79%. In the case of `Cc1csc(Nc2cccc(CC3CCN(CC(=O)N(C)C)CC3)n2)n1` it was 7.9%.

Regarding `Cc1csc(Nc2cccc(C3CCCN3C(=O)COc3c(C)cccc3C)n2)n1` (stereo unspecified), the “relative growth in counter assay” value is -5.6%.

On to `Cc1ccc(CCC(=O)Nc2ccc(S(=O)(=O)Nc3nc(C)cc(C)n3)cc2)cc1`, for which the “relative growth in counter assay” value was -0.03%.

Consider `Cc1csc(Nc2cccc(C3CCN(C(=O)c4nccc5ccccc45)CC3)n2)n1`, for which the “relative growth in counter assay” value is -6.18%. Take `COc1ccc(NC(=O)CN2CCC(c3cccc(Nc4nc(C)cs4)n3)CC2)cc1`: the “relative growth in counter assay” value came to 13.8%.

`COc1ccc(OCCCC(=O)Nc2ccc(S(=O)(=O)Nc3ncccn3)cc2)cc1`: the “relative growth in counter assay” value is 1.38%. For `O=C(CN1C(=O)C2CCCCC2C1=O)Nc1ccc(S(=O)(=O)Nc2ncccn2)cc1` (stereo unspecified), the “relative growth in counter assay” value is -0.9%. For `Cc1csc(Nc2cccc(C3CCN(C(=O)C4CC=CCC4)CC3)n2)n1` (stereo unspecified), the “relative growth in counter assay” value was 7.14%. For the compound `Cc1ccc(Cl)cc1NC(=O)CSc1nnc2c(n1)[nH]c1ccc(F)cc12`, the “relative growth in counter assay” value was -2.7%. `CCCc1cnc(Nc2cccc(C3CCN(C(=O)C4CCCCN4CCO)CC3)n2)s1` (stereo unspecified): the “relative growth in counter assay” value was -7.08%. With `O=C(Nc1ccc(S(=O)(=O)Nc2ncccn2)cc1)C(F)(F)F` the figure was 11.6%; with `Cc1nc2ccccn2c1CC(=O)N1CCOC(c2cccc(Nc3nccs3)n2)C1` (stereo unspecified), 4.61%; with `Cc1ccnc(NS(=O)(=O)c2ccc(NC(=O)c3ccccc3F)cc2)n1`, 4.1%. With `COc1ccc(C(=O)Nc2ccc(S(=O)(=O)Nc3cc(OC)nc(OC)n3)cc2)c(OC)c1` the figure was 2.33%; with `NC(=O)CN1CCC(Cc2cccc(Nc3nccs3)n2)CC1`, -23.2%; with `CC(=O)Nc1ccc(C(=O)Nc2ccc(S(=O)(=O)Nc3ncccn3)cc2)cc1`, 4.78%. Take `COc1cc(OC)cc(C(=O)Nc2ccc(S(=O)(=O)Nc3ccccn3)cc2)c1`: the “relative growth in counter assay” value was found to be 2.42%.

As for `O=C(/C=C/c1ccco1)N1CCCC(c2csc(Nc3ccccn3)n2)C1` (stereo unspecified), the “relative growth in counter assay” value amounted to 11.1%.

`Cc1csc(Nc2cccc(C3CCCN3CC(N)=O)n2)n1` (stereo unspecified): the “relative growth in counter assay” value was 16.8%. Turning to `CC(Oc1ccc(F)cc1)C(=O)Nc1ccc(S(=O)(=O)Nc2ncccn2)cc1` (stereo unspecified), the “relative growth in counter assay” value is 7.06%.

On to `Cc1cc(C)nc(NS(=O)(=O)c2ccc(NC(=O)C(C)Oc3ccccc3F)cc2)n1` (stereo unspecified), for which the “relative growth in counter assay” value worked out at 5.27%. As for `COc1cc(NS(=O)(=O)c2ccc(NC(=O)c3ccc(Br)o3)cc2)nc(OC)n1`, the “relative growth in counter assay” value was -0.13%. Consider `Cc1cnc(Nc2cccc(C3CN(C(=O)c4ccccn4)CCO3)n2)s1` (stereo unspecified), for which the “relative growth in counter assay” value was -7.73%. With `CCCc1cnc(Nc2cccc(C3CCCN(C(=O)C4CCCCC4)C3)n2)s1` (stereo unspecified) the figure was -7.86%; with `Cc1ccc(/C=C/C(=O)Nc2ccc(S(=O)(=O)Nc3nc(C)cc(C)n3)cc2)cc1`, -5.91%; with `Cc1cnc(Nc2cccc(C3CN(C(=O)CCc4ccc(N(C)C)cc4)CCO3)n2)s1` (stereo unspecified), 3.21%. With `CC(C)CC(=O)Nc1ccc(S(=O)(=O)Nc2ncccn2)cc1` the figure was -0.27%; with `O=C(CSc1nnc2c(n1)[nH]c1ccccc12)Nc1cccc(Cl)c1`, -19.5%; with `Cc1cc(C)nc(NS(=O)(=O)c2ccc(N3C(=O)c4ccccc4C3=O)cc2)n1`, -1.86%. In the case of `COc1ccc(NS(=O)(=O)c2ccc(NC(=O)c3ccccc3C(=O)O)cc2)nn1` it was 0.95%; in that of `CCCCc1cnc(Nc2cccc(C3CCN(C(=O)[C@@H]4CCCN4C(=O)OC(C)(C)C)CC3)n2)s1`, -3.6%; in that of `CC(=O)Nc1ccc(S(=O)(=O)Nc2cc(C)ccn2)cc1`, 1.91%. `O=C(Nc1ccc(S(=O)(=O)Nc2ncccn2)cc1)C1CC(=O)N(c2ccccc2)C1` (stereo unspecified): the “relative growth in counter assay” value is -22.8%. Turning to `CCC(=O)Nc1ccc(S(=O)(=O)Nc2nccc(C)n2)cc1`, the “relative growth in counter assay” value was -9.93%.

In the case of `Cc1ccc(/C=C/C(=O)Nc2ccc(S(=O)(=O)Nc3ncccn3)cc2)cc1`, the “relative growth in counter assay” value stood at 4.41%.
